Experimental data as given in PubChem BioAssay AID602310 (National Center for Advancing Translational Sciences (NCATS), 2012).
Out of some 410,000 compounds screened, about 310 (0.076%) were called active. Inconclusive results, whose numbers are uncertain, are shown with a selection of clear calls. Calls follow the shape of the dose curve; as a rule, active = well fitted curve in the direction sought with a large enough effect; inconclusive = small, poorly fitted or top-dose-only effect; inactive = flat fitted curve, though single readings scatter. Where the call is inconclusive, the potency comes from a doubtful curve fit.
Also: nearly all actives have a fitted effect of over 60% in size.
Potency is read from the fitted curve at half-maximal effect; tags tell the direction and shape of the fitted curve.

The compounds below were run against DNA dC->dU-editing enzyme APOBEC-3G (Homo sapiens) (UniProt Q9HC16) (assay: qHTS for Inhibitors of Vif-A3G Interactions: qHTS). Conditions: HeLa A3G-eYFP + Vif (tagged APOBEC3G with the HIV-1 protein that degrades it), YFP fluorescence, overnight; series mostly up to 46.1 µM.
UniProt Q9HC16, sequence (Q9HC16 whole entry, looked up): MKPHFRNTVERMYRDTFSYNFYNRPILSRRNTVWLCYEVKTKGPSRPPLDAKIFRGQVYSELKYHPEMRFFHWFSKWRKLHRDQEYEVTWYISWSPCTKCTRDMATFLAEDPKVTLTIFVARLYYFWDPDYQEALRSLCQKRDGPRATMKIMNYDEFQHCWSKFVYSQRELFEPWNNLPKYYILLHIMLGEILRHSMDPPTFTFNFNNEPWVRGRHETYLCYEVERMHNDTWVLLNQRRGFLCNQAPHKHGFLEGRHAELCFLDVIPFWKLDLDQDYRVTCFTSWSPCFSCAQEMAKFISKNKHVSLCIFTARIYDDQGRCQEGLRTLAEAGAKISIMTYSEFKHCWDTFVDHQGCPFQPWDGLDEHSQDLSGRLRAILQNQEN
In short: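 Read-out is eYFP fluorescence (Ex 488/Em 500-530) from Vif-expressing HeLa A3G-eYFP cells; more signal means A3G escaped Vif-mediated degradation. Cells plated overnight, compound pinned in, incubated overnight at 37 deg C.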
In the case of O=C1NC(c2cccc(Cl)c2)Nc2ccccc21 (stereo unspecified), the Potency was active: 11.2 µM.
For COc1cc(/C=C2\SC(=S)N(NC(=O)c3ccccc3OC)C2=O)ccc1O, the Potency was “inactive”.
COc1cccc(CNC(=O)N2CCN(S(=O)(=O)c3ccc(C)cc3)CC2)c1 was tested, and the Potency was “inactive”.
With O=C1/C(=C\c2ccc(Cl)c(Cl)c2)CN(C(=O)CCN2CCOCC2)C/C1=C/c1ccc(Cl)c(Cl)c1 the Potency was inconclusive: 1.26 µM [inhibitor, partial curve, poor fit].
For CC(O)c1cccc(NC(=O)Nc2cccc(NC(=O)Nc3cccc(C(C)O)c3)c2)c1 (stereo unspecified), the Potency was “inactive”.
C/C(=N\Nc1ccc(S(N)(=O)=O)cc1[N+](=O)[O-])c1ccc2c(c1)OCO2 was tested, and the Potency was inconclusive: 35.5 µM [inhibitor, partial curve, poor fit].
In the case of C[n+]1ccc(/C=C/c2c[nH]c3ccccc23)cc1, the Potency was active: 11.2 µM.
With COc1ccc(C(=O)NCc2c(C)nn(Cc3ccccc3)c2C)cc1S(=O)(=O)N1CCOCC1 the Potency was inconclusive: 10 µM [inhibitor, partial curve, poor fit].
In the case of CCn1ccnc1CN1CCCCC1C(=O)Nc1ccc(Oc2cccnc2)cc1 (stereo unspecified), the Potency was inconclusive: 12.6 µM [inhibitor, single point].
For Fc1cc(F)c2nc(Nc3nc4cc5c(cc4s3)OCO5)sc2c1, the Potency was inconclusive: 17.8 µM [inhibitor, single point].
In the case of CNc1ccc(/C=C/c2ccnc3ccccc23)cc1, the Potency was inconclusive: 11.2 µM [inhibitor, partial curve].
In the case of CN1CCc2c(sc(NC(=O)c3ccc([N+](=O)[O-])o3)c2C(N)=O)C1, the Potency was inconclusive: 15.8 µM [inhibitor, single point].
For COc1ccc(OCc2cc(C(=O)NC3Cc4ccccc4C3)no2)c(Cl)c1, the Potency was inconclusive: 2.82 µM [inhibitor, partial curve, poor fit].
With COc1ccccc1Cc1c(-c2ccco2)nc2c(C)cc(Br)cn12 the Potency was inconclusive: 7.08 µM [inhibitor, partial curve, poor fit].
COCCNC(=O)c1ccc2c(c1)ncn2-c1ccc(C)c(Cl)c1 was tested, and the Potency was inconclusive: 22.4 µM [inhibitor, single point].
For OCC[n+]1ccc(/C=C/c2c[nH]c3ccccc23)cc1, the Potency was inconclusive: 35.5 µM [inhibitor, single point].
For O=c1[nH]c2ccccc2nc1/C=C/c1ccc(F)cc1, the Potency was inconclusive: 17.8 µM [inhibitor, partial curve, poor fit].
For O=C(CSc1nncs1)N1CCN(S(=O)(=O)c2ccccc2)CC1, the Potency was “inactive”.
For Cc1ncoc1C(=O)N1CCCC(C(=O)Nc2cccc(-c3ccc(F)cc3)c2)C1 (stereo unspecified), the Potency was “inactive”.
For N#C/C(C(=O)NCCc1ccccc1)=C1/N=C(NC(=O)c2cccs2)c2ccccc21, the Potency was inconclusive: 7.94 µM [inhibitor, partial curve, poor fit].
With Cc1cc(C(F)(F)F)c(C#N)c(SCC(=O)Nc2nc3cc(Br)ccc3s2)n1 the Potency was inconclusive: 5.62 µM [inhibitor, single point].
For CC(=O)Nc1cccc(-c2ccnc3c2CC(C(=O)Nc2ccc4c(c2)OCO4)O3)c1 (stereo unspecified), the Potency was inconclusive: 2.51 µM [inhibitor, full curve, poor fit].
With Cc1cc(N2C(=O)C(O)=C(C(=O)c3ccco3)C2c2ccc([N+](=O)[O-])cc2)no1 (stereo unspecified) the Potency was “inactive”.
With CCOC(=O)c1c(CC(C)C)csc1/N=C/C1=C(O)CCCC1=O the Potency was inconclusive: 25.1 µM [inhibitor, single point].
For COc1cc(O)c(CC=C(C)C)c(O)c1C(=O)CCc1ccc(O)cc1, the Potency was “inactive”.
For N#CCc1nc2ccc(S(=O)(=O)N3CCOCC3)cc2s1, the Potency was inconclusive: 0.631 µM [inhibitor, full curve, poor fit].
O=C1CNC(=O)/C1=C/c1ccc(Br)cc1 was tested, and the Potency was “inactive”.
With CCc1cc(-c2n[nH]c(C)c2-c2ccccc2Cl)c(O)cc1OC the Potency was “inactive”.
For O=C(CN1C(=O)c2ccccc2S1(=O)=O)c1ccc(Cl)cc1Cl, the Potency was “inactive”.
For COc1ccc(S(=O)(=O)N2CCCC2CNC(=O)C(=O)NCCc2ccccc2)cc1 (stereo unspecified), the Potency was inconclusive: 6.31 µM [inhibitor, partial curve, poor fit].
COc1cc(OC)c2cc(C(=O)N/N=C/c3ccccc3O)[nH]c2c1 was tested, and the Potency was inconclusive: 10 µM [inhibitor, partial curve].
In the case of CN(CC(=O)Nc1cccc(F)c1)C(=O)c1cc(-c2ccco2)nc2ccccc12, the Potency was “inactive”.
In the case of O=C1CC(c2ccccc2)n2nc(NC(=O)c3ccccn3)nc2N1 (stereo unspecified), the Potency was inconclusive: 25.1 µM [inhibitor, single point].
CCOc1ccccc1CNC(=O)CCc1c(C)nn(-c2ccc(N3CCCCC3)nn2)c1C was tested, and the Potency was “inactive”.
For O=C(Nc1ccc(N2CCN(C(=O)c3ccccc3)CC2)cc1)c1cc([N+](=O)[O-])ccc1N1CCOCC1, the Potency was “inactive”.
With Fc1c(F)c(C(F)(F)F)c(F)c(F)c1N/N=C\c1cccs1 the Potency was “inactive”.
For O=c1cc(N2CCN(c3ccccc3Cl)CC2)[nH]c(=O)n1Cc1ccc(F)cc1, the Potency was inconclusive: 1.78 µM [inhibitor, full curve].
In the case of O=C(O)CCC(=O)Nc1ccc(-n2ccc(C(F)(F)F)n2)cc1, the Potency was “inactive”.
In the case of O=C(/C=C/c1ccc(NC(=O)c2ccccc2-c2ccccc2C(=O)O)cc1)c1ccccc1, the Potency was inconclusive: 31.6 µM [inhibitor, single point].
With CCOC(=O)c1c(Nc2ccc(O)cc2)nnc(-c2ccccc2)c1-c1ccccc1 the Potency was “inactive”.
In the case of O=C(c1ccccc1)N1CCc2ccccc21, the Potency was “inactive”.
With CCOCCCNC(=O)/C(C#N)=C/c1cc(Br)c(O)c(Br)c1 the Potency was inconclusive: 1 µM [inhibitor, full curve, poor fit].
O=C(CCNC(=O)c1ccco1)Nc1ccc(Cl)cc1 was tested, and the Potency was “inactive”.
In the case of COc1ccccc1N1CCN(C(=S)Nc2cccc(C)c2)CC1, the Potency was inconclusive: 11.2 µM [inhibitor, partial curve].
In the case of Oc1ccccc1C=NN1CCCCCC1, the Potency was “inactive”.
In the case of O=C(NCC(c1cccs1)N1CCOCC1)c1cnc(Cl)c(Cl)c1 (stereo unspecified), the Potency was inconclusive: 15.8 µM [inhibitor, single point].
